Among all 390,000 compounds or so, about 150 (0.038%) were called active. The inconclusive results got no clear call from the source; some entries with a clear call stand among them for comparison. Calls come from the whole dose curve; as a rule, active = well fitted inhibition curve with a large enough effect; inconclusive = small, poorly fitted or top-dose-only effect; inactive = no such curve, though single readings can be large or run the other way. Potencies beside an inconclusive call are fits to weak or partial responses and may not hold up.
target: Regulator of G-protein signaling 4 (Homo sapiens) (UniProt P49798); assay: Inhibitors of Regulator of G Protein Signaling (RGS) 4: qHTS; settings: Transcreener GDP fluorescence polarization, RGS4-accelerated GTP hydrolysis; series mostly up to 114 µM; note: nearly all actives have a fitted effect of over 75% in size
Sequence of UniProt P49798 (P49798 whole entry, looked up): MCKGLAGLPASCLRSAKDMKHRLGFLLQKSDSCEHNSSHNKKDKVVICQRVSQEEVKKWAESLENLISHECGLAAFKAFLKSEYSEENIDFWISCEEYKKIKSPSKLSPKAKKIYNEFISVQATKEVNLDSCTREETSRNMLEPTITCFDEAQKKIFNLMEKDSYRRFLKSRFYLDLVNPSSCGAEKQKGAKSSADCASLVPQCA
Method in brief: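 MLSMR compounds (23 nl, pin-transferred) preincubated 10 min at room temperature with a 500nM (2x) first reagent, then RGS4 at 900nM (2x) plus Transcreener GDP mix added; fluorescence polarization (620/688 nm) read before and after 90 min at 30 °C.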
% is set by controls: 0 for no effect and ±100 for the full control effect; potency is the fitted concentration of half-maximal effect; tags give direction and shape of the fitted curve.

SMILES | Potency | activity change, negative = inhibition
Cc1ccc(-c2cc(-c3ccc(Cl)cc3)c(C#N)c(N)n2)o1 | inconclusive: 70.8 µM [inhibitor, partial curve, poor fit] | 
COc1ccc(/C=C/C2=CC(C)(C)NC(=S)N2)c(OC)c1 | inconclusive: 10 µM [inhibitor, full curve, poor fit] | 
CCOC(=O)c1ccccc1NC(=O)CSc1ccc(-c2sc(-c3ccccc3)nc2C)nn1 | inconclusive: 17.8 µM [inhibitor, partial curve, poor fit] | 
O=S(=O)(NCC1CCCO1)c1cc(Br)c(Br)s1 (centres undefined) | inconclusive: 50.1 µM [inhibitor, partial curve, poor fit] | 
Cc1ccc(COc2ccc(-c3nnco3)cc2)cc1 | inactive | 
N#CC1=C(N)OC2=C(C(=O)CCC2)C1C1C=CCCC1 (centres undefined) | inconclusive: 89.1 µM [inhibitor, single point] | 
C/C(=N\OCC(=O)Nc1ccccc1C(=O)O)c1cccs1 | inactive | 
CCc1cccc(NC(=O)CSC2=NS(=O)(=O)c3ccccc32)c1 | inconclusive: 31.6 µM [inhibitor, full curve, poor fit] | 
CN1/C(=C\C(=O)c2ccco2)C(C)(C)c2ccccc21 | inconclusive: 28.2 µM [inhibitor, full curve, poor fit] | 
N#Cc1c(-c2ccco2)cc(-c2ccc(F)cc2)nc1N | inconclusive: 79.4 µM [inhibitor, partial curve, poor fit] | 
O=[N+]([O-])c1ccc(Cl)c(-c2ccc(/C=N/n3cnnc3)o2)c1 | inconclusive: 50.1 µM [inhibitor, partial curve, poor fit] | 
CNC(=S)N(Cc1cc2cc(C)cc(C)c2[nH]c1=O)C1CCCC1 | inconclusive: 39.8 µM [inhibitor, full curve, poor fit] | 
COc1ccccc1-n1cnnc1SCc1csc(-c2ccccc2)n1 | inactive | 
N#Cc1c(N2CCOCC2)nc(-c2ccco2)c2c1CCCC2 | inconclusive: 39.8 µM [inhibitor, partial curve, poor fit] | 
C/C(=N\NC(=O)c1cc(C(C)(C)C)[nH]n1)C12CC3CC(CC(C3)C1)C2 | inconclusive: 31.6 µM [inhibitor, full curve, poor fit] | 
COc1ccccc1CNC(=O)C(Cc1c[nH]c2ccccc12)NC(=O)OCc1ccccc1 (centres undefined) | inactive | 
NC(=O)c1c(NC(=O)c2cc(-c3ccc(F)cc3)on2)sc2c1CCCC2 | inconclusive: 35.5 µM [inhibitor, partial curve, poor fit] | 
Cc1ccc(Nc2nc(NCCO)nc3c2cnn3C)cc1Cl | inconclusive: 79.4 µM [inhibitor, partial curve, poor fit] | 
Fc1ccc(COc2ccccc2C(=S)N2CCCC2)cc1 | inconclusive: 28.2 µM [inhibitor, full curve, poor fit] | 
O=C(NCCc1ccccc1)c1cccc2c1C(=O)N(C1CCCCC1)C2 | inactive | 
Cn1c(=O)[nH]c(=O)c2c1[nH]c(=S)n2Cc1ccc(Cl)cc1 | inconclusive: 20 µM [inhibitor, full curve, poor fit] | 
COc1ccc(C(O)(CCN2CCCCC2)C2CCCCC2)cc1 (centres undefined) | inactive | 

SMILES | Potency | activity change, negative = inhibition
S=C(NCC1CCCO1)NC1CCCCC1 (centres undefined) | inactive | 
S=C(NCc1cccs1)Nc1cccc(Cl)c1 | inactive | 
CCOC(=O)N1CCc2c(sc(NCc3cccc(F)c3)c2C(=O)Nc2ccc(OC)cc2)C1 | inconclusive: 39.8 µM [inhibitor, partial curve, poor fit] | 
O=C(OCn1ncc(Br)c(Br)c1=O)c1ccc(F)cc1 | inconclusive: 50.1 µM [inhibitor, partial curve, poor fit] | 
COc1cc(CNCc2ccccn2)ccc1OCc1cccc(Cl)c1 | inactive | 
CC(=O)N/N=C(\C)CC(=O)NC(C)(C)C | inconclusive: 70.8 µM [inhibitor, single point] | 
CC(=O)[C@]1(O)Cc2c(O)c3c(c(O)c2[C@@H](O[C@H]2C[C@H](N)[C@H](O)[C@H](C)O2)C1)C(=O)c1ccccc1C3=O | inconclusive: 37.7 µM [inhibitor, single point] | 
CCN1CCN(Cc2ccc(NC(=O)c3cc(NC(=O)C4=NN(c5ccccc5)C(=O)C4)cc(OC)c3)cc2C(F)(F)F)CC1 | inconclusive: 89.1 µM [inhibitor, single point] | 
CC1(C)Cc2cccc(OCC(=O)NCc3ccc(F)cc3)c2O1 | inconclusive: 100 µM [inhibitor, single point] | 
COc1cccc(NC(=O)Nc2ccncc2)c1 |  | inactive: -13.5% [at 11.4 µM]
CCOc1ccc2nc(Cl)c(/C=C/C(=O)c3ccco3)cc2c1 | inconclusive: 79.4 µM [inhibitor, partial curve, poor fit] | 
NC(=O)C1=C(N)c2ccccc2C1c1ccccc1 (centres undefined) | inconclusive: 100 µM [inhibitor, single point] | 
Cn1ccc2cc(NC(=O)Nc3cccnc3)ccc21 | inconclusive: 79.4 µM [inhibitor, partial curve, poor fit] | 
CCOc1ccc(S(=O)(=O)N2CCCCC2)c2ccccc12 |  | inactive: -15.9% [at 11.4 µM]
O=C(CSc1nnc(-c2ccncc2)o1)Oc1ccccc1 | inactive | 
O=C(OCc1ccc([N+](=O)[O-])cc1)C1CC(=O)N(Cc2ccccc2Cl)C1 (centres undefined) | inconclusive: 89.1 µM [inhibitor, single point] | 
CC(=O)c1ccc(NC(=S)Nc2cccc3ccccc23)cc1 | inconclusive: 50.1 µM [inhibitor, partial curve, poor fit] | 
Cc1ccc2cc(/C=N/NC(=O)CN3CCCCC3)c(Cl)nc2c1 | inconclusive: 70.8 µM [inhibitor, single point] | 
O=C(NC(=S)Nc1ccc(NC(=O)c2cccs2)cc1)c1ccco1 | inconclusive: 50.1 µM [inhibitor, partial curve, poor fit] | 
CC(=O)c1ccc(NC(=O)c2ccc3nc(-c4ccco4)c(-c4ccco4)nc3c2)cc1 | inconclusive: 50.1 µM [inhibitor, partial curve, poor fit] | 
O=C(CSc1ncccc1-c1nc2ccccc2[nH]1)Nc1ccc2c(c1)OCCO2 | inactive | 
COc1ccc(NS(=O)(=O)c2ccc3c(c2)[C@H]2C=CC[C@H]2[C@@H](c2ccc(C(=O)O)cc2)N3)cc1 | inconclusive: 56.2 µM [inhibitor, partial curve, poor fit] | 

SMILES | Potency | activity change, negative = inhibition
CC1CCN(C(=O)CN2C(=O)C(C)(C)Oc3ccc(C(=O)NC4CCCC4)cc32)CC1 | inconclusive: 79.4 µM [inhibitor, single point] | 
C=CS(=O)(=O)c1c2cc(OC)ccc2nc2ccc(OC)cc12 | inconclusive: 44.7 µM [inhibitor, partial curve, poor fit] | 
CCOc1ccc(CCNCc2c(C(=O)O)c(C)n(Cc3ccccc3F)c2C)cc1 | inactive | 
Cc1ccc(C(=O)N(NC2=NS(=O)(=O)c3ccccc32)S(=O)(=O)c2ccc(C)cc2)cc1 | inconclusive: 89.1 µM [inhibitor, single point] | 
CSc1nsc(/C=C/Nc2ccc(O)cc2C)c1C#N | inconclusive: 79.4 µM [inhibitor, partial curve, poor fit] | 
COc1cc2c(C(=O)N3CCN(c4cccc(Cl)c4)CC3)cn(CC(C)C)c(=O)c2cc1OC | inconclusive: 79.4 µM [inhibitor, partial curve, poor fit] | 
Fc1cccc(C[n+]2csc3ccccc32)c1 | inconclusive: 35.5 µM [inhibitor, partial curve, poor fit] | 
CCc1ccccc1NC(=O)CN(C)Cc1c(O)ccc2ccccc12 | inconclusive: 44.7 µM [inhibitor, partial curve, poor fit] | 
O=C(Nc1cccc(Cl)c1)C1CC1c1ccccc1 (centres undefined) | inconclusive: 50.1 µM [inhibitor, partial curve, poor fit] | 
Oc1ccc(-c2cn3c(n2)SCC3)cc1O | inconclusive: 56.2 µM [inhibitor, partial curve, poor fit] | 
CCOC(=O)c1cc2c(=O)n3ccccc3nc2n(Cc2ccco2)c1=NC(=O)c1cccc(Br)c1 | inconclusive: 50.1 µM [inhibitor, partial curve, poor fit] | 
O=S(=O)(NCCc1csc2nc(-c3ccccc3)nn12)c1ccc(Oc2ccccc2)cc1 | inactive | 
COc1cc2c(cc1OC)C(c1cc(Br)ccc1F)N(C(=O)CCl)CC2 (centres undefined) | inactive | 
NC(=O)NC(=O)C(c1ccccc1)N1CCN(S(=O)(=O)c2ccc(Br)s2)CC1 (centres undefined) | inactive | 
O=C(CSCC(=O)OCn1nnc2ccccc2c1=O)Nc1ccc(Cl)cc1 | inconclusive: 56.2 µM [inhibitor, partial curve, poor fit] | 
CC(=O)Oc1cccc(/C=C2\C=C(c3ccc(C)cc3)OC2=O)c1 | inconclusive: 50.1 µM [inhibitor, partial curve, poor fit] | 
CC1(C)Cc2ccccc2C(N/N=C/c2cccc(F)c2)=N1 | inconclusive: 70.8 µM [inhibitor, single point] | 
CCC1CCCCN1C(=O)COc1ccc(N(C)S(=O)(=O)c2ccc(C)cc2)cc1 (centres undefined) | inconclusive: 89.1 µM [inhibitor, single point] | 
O=[N+]([O-])c1ccc(N2CCCCC2)cc1NCCOc1ccccc1 | inconclusive: 100 µM [inhibitor, single point] | 
O=C1CC(c2ccco2)Sc2nc3ccccc3n21 (centres undefined) | inconclusive: 50.1 µM [inhibitor, single point] | 

— PubChem BioAssay AID504845 (National Center for Advancing Translational Sciences (NCATS), 2011)
